Experimental findings from article PMC12136788 are described below.

B1: chr12:47968718:47968836:+|3pUTR|ENSG00000134291|unk|FALSE|unique (ssRNA)
RNA: GGGAGUUCUACAGUCCGACGAUCCUGGGAGCUUUUUGAAAAGAAAGAAAAAAGUGUGUUGGCUUUUUUUUUUUUUAGAAAGUUAGAAUUGUUUUUACCAAGAGUCUAUGUGGGGCUUGAUUCACCCUUCAUCCAUUGGCUGGACAACAGAGGAUUGAGCAUCA
B2: ENSG00000124766:be:win_3751|3pUTR|ENSG00000124766|bound_else_gene|NA|bound_elsewhere_windowed (ssRNA)
RNA: GGGAGUUCUACAGUCCGACGAUCUUGUACAUUUAAGUCUGUAUUAUAAUAAGCAAAAAGAUUGUGUGUAUGUAUGUUUAAUAUAACAUGACAGGCACUAGGACGUCUGCCUUUUUAAGGCAGUUCCGUUAAGGGUUUUUGUUUCAACAGAGGAUUGAGCAUCA
B3: chr3:49886901:49887562:-|three_prime_utr|ENSG00000164078|control|control|control (ssRNA)
RNA: GGGAGUUCUACAGUCCGACGAUCCCAAGUGAUGCAGCAAUGCUGGGAGGCAGACCCAGCAGUGCGACCCACCUUCAGAGUACUAGUGGGGGAGGUGGAGCAGAUAGUGUCUGCACUGCUUGGGGACCAUUAUGUGCAGCUGCCCAACAGAGGAUUGAGCAUCA
B4: chr15:75657416:75657517:+|3pUTR|ENSG00000173548|msi1|total|mutant (ssRNA)
RNA: GGGAGUUCUACAGUCCGACGAUCCAUGGGUGCCCCUGGGAAAUUCCCCACUCCUCCGAAGUGGGGCACAGCAGGGGUGAGAACCGAGUCAGGAGCCCUCGAGGCCAAGGCCUGGGCUGCCGGUCAGUCAGUGAAGGUCAGGCCCAACAGAGGAUUGAGCAUCA
B5: chr2:167954955:167954998:-|3pUTR|ENSG00000198648|msi1_unk|FALSE|overlapping (ssRNA)
RNA: GGGAGUUCUACAGUCCGACGAUCGUUGUAUUUAGAAAUUAAUAUACUUAUAAAAUUAAGAUUUAUUAGCCAAACUUGAAUUCUAGUUUUAAAACUGACUGUGAAUUUUAUUUUUCAUAUAUUUAUGCAUUACACACCUUAGCUCAACAGAGGAUUGAGCAUCA
B6: chr12:1788447:1788559:+|3pUTR|ENSG00000006831|unk|total|mutant (ssRNA)
RNA: GGGAGUUCUACAGUCCGACGAUCUUUCUUUUUUGGCCCCCGGCUGGUUGGGACCUCUACAGCUUCAUUCUUUCACCAUUAAACCGUGGCCUUUUUCAGUAUUUUCCCUCUUCCCCUUUAUAAAUUAUGCUAAAGCCACAAAGCCAACAGAGGAUUGAGCAUCA
B7: ENSG00000124766:be:win_2001|3pUTR|ENSG00000124766|bound_else_gene|NA|bound_elsewhere_windowed (ssRNA)
RNA: GGGAGUUCUACAGUCCGACGAUCAUUUGGCCGAUGGCAGAUGUUUUGGGGGAACGCCGGGACUGAGAGACUCCACGCAGGCGAAUUCCCGUUUGGGGCUUUUUUUUCCUCCCUCUUUUCCCCUUGCCCCCUCUGCAGCCGGAGCAACAGAGGAUUGAGCAUCA
B8: chr2:240466480:240466663:+|3pUTR|ENSG00000063660|msi1|FALSE|unique (ssRNA)
RNA: GGGAGUUCUACAGUCCGACGAUCGGAGCCAGUGUGCCCAAAAGCCAUGUAUUUCAGGGACCUCAGGGGCACCUCCGGCUGCCUAGCCCUCCCCCCAGCUCCCUGCACCGCCGCAGAAGCAGCCCCUCGAGGCCUACAGAGGAGCAACAGAGGAUUGAGCAUCA
B9: ENSG00000164985:stop:overlap|stop_codon|ENSG00000164985|stop_codon|NA|stop_codon (ssRNA)
RNA: GGGAGUUCUACAGUCCGACGAUCAGCCAUCCAGUGAAGAGAGAGAGACUGAAAUAUCUCUGAAGGAUUCUACACUAGAUAACUAGGUUGACAUACCUGGAAUAUAGAGAACACUUGAGAAGUUUGUAAUGGUUUUCAUUUGAACAACAGAGGAUUGAGCAUCA
B10: chr13:79312715:79312816:-|3pUTR|ENSG00000139746|unk|FALSE|unique (ssRNA)
RNA: GGGAGUUCUACAGUCCGACGAUCCCUUGUGAUUUAUUAUAAUGUAGCAGCAUACUUAUAAAAGUGGUCUGUGCUGAGUCAGAUAGAGAGCCCAGCCCAUUAGAAACACAUCAUAAUUUAAGAAUAUGAUGCAGAAUGCCCUUACAACAGAGGAUUGAGCAUCA
B11: chr1:37709127:37709197:+|3pUTR|ENSG00000134690|msi1_unk|total|mutant (ssRNA)
RNA: GGGAGUUCUACAGUCCGACGAUCUGAAGACCAAAUACUGGUUUGGAGACAACUUCCAUGUCUUGCUCUUCUACCUCCCCCGUCCGUGGAAAUUUGGAUAAGGGAACUGCCGGGCCCAGAUUCUGGAGGUUUUAUGUCAUUGGCCAACAGAGGAUUGAGCAUCA
B12: chr6:43186014:43186115:+|CDS|ENSG00000112659|msi1|total|mutant (ssRNA)
RNA: GGGAGUUCUACAGUCCGACGAUCCUGCUUUUCUCCUUGGUGAAGCGCUACCUUUGUGUCACGUCCCUCCUGGAUCAGCUGAACCGCAGUCCAGAGCUGGGAGCUGGAGACCAAAGCUCCCCAUGUGCCACAAGAGAGAAAAGCCAACAGAGGAUUGAGCAUCA
B13: chr10:128104542:128104643:-|CDS|ENSG00000148773|msi1|FALSE|unique (ssRNA)
RNA: GGGAGUUCUACAGUCCGACGAUCAAGUGAUGAGAAAAAUAUCAACACAUUUGUGGAAACUCCAGUGCAGAAACUGGACCUGCUAGGAAAUUUACCUGGCAGCAAGAGACAGCCACAGACUCCUAAGGAAAAGGCUGAGGCUCUCAACAGAGGAUUGAGCAUCA
B14: chr17:58308540:58309380:-|CDS|ENSG00000005379|control|control|control (ssRNA)
RNA: GGGAGUUCUACAGUCCGACGAUCCAUCAGCAUCACCAGCUCCUGCUACCCUGGAGAUGGGGAGGCCUGGGGCACAGCAACUGUAGGAAGGCCCAGGGGGCCUCCGAAGGCCAAUUCAGGCCCCAAGCCCUACCCACGCCUCCCCAACAGAGGAUUGAGCAUCA

The other results are listed elsewhere or left out.

For the assay, the target named is MSI1 full-length (mouse, UniProt Q61474 1-362). Description: nsRBNS (natural sequence RNA bind-n-seq); RBNS binding buffer (assumed for nsRBNS): 25 mM Tris pH 7.5, 150 mM KCl, 3 mM MgCl2, 0.01% Triton X-100, 500 ug/ml BSA, 20 U/ml SUPERase-In, 4 C; UNK is unkempt and MSI1 is Musashi-1; names of the RNAs are library labels; protein concentration not given here; high values mean tight binding.
UniProt Q61474, sequence (Q61474 whole entry): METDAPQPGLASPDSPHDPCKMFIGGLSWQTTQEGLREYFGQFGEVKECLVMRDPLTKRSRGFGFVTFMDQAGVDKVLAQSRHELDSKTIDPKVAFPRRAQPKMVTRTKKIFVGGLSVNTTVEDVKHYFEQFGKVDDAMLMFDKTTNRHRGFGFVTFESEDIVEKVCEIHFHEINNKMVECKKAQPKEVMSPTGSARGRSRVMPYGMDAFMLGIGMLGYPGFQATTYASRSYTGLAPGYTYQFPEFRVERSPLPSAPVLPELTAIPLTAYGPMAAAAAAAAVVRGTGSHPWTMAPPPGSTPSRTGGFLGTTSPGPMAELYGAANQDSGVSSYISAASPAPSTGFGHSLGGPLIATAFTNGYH
Take B1: the binding signal was 0.412 enrichment R.

Consider B2, for which the binding signal came to 0.578 enrichment R.

For B3, the binding signal came out at 1.17 enrichment R.

The molecule B4 registered a binding signal of 0.249 enrichment R. B5: the binding signal came to 9.9 enrichment R. Molecule B6 gave a binding signal of 0.933 enrichment R. Then B7, with 0.608 enrichment R. Turning to B8, the binding signal was determined as 0.472 enrichment R. B9 yielded a binding signal of 3.63 enrichment R.

Molecule B10 registered a binding signal of 17.8 enrichment R. On to B11, for which the binding signal is 0.379 enrichment R. B12 gave a binding signal of 0.337 enrichment R. Under B13 stands 0.382 enrichment R; under B14, 0.354 enrichment R.
